Source: article PMC9911399, “Two distinct binding modes provide the RNA-binding protein RbFox with extraordinary sequence specificity”
Substitutions are numbered along the chain they refer to; changes in the protein carry UniProt numbers. The list shows a part of the results.

T1: RBFOX1 RRM RbFoxmut (Fox-RRM*) (Homo sapiens, UniProt Q9NWB1 109-208, R118D;E147R;N151S;E152T)
T1 sequence: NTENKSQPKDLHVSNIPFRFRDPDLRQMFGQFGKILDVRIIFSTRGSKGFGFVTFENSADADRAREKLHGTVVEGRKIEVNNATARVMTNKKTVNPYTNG

B1: CUCGAAC (DNA:RNA)
RNA: GGGAGACCGGAAUUCAGAUUGUCCCUCGAACUUAAAUCCCGUCGUAGCCACCA
DNA 1: CAATCTGAATTCCGGTCTCCC
DNA 2: TGGTGGCTACGACGGGATT
B2: GAUUUGG (DNA:RNA)
RNA: GGGAGACCGGAAUUCAGAUUGUCCGAUUUGGUUAAAUCCCGUCGUAGCCACCA
DNA 1: CAATCTGAATTCCGGTCTCCC
DNA 2: TGGTGGCTACGACGGGATT
B3: UAAUACG (DNA:RNA)
RNA: B2 RNA with G25U, U27A, U29A, G30C
DNA 1: CAATCTGAATTCCGGTCTCCC
DNA 2: TGGTGGCTACGACGGGATT
B4: GAGGCCG (DNA:RNA)
RNA: B2 RNA with U27G, U28G, U29C, G30C
DNA 1: CAATCTGAATTCCGGTCTCCC
DNA 2: TGGTGGCTACGACGGGATT
B5: ACUCCAU (DNA:RNA)
RNA: B1 RNA with C25A, U26C, C27U, G28C, A29C, C31U
DNA 1: CAATCTGAATTCCGGTCTCCC
DNA 2: TGGTGGCTACGACGGGATT
B6: AAUUUUG (DNA:RNA)
RNA: B2 RNA with G25A, G30U
DNA 1: CAATCTGAATTCCGGTCTCCC
DNA 2: TGGTGGCTACGACGGGATT
B7: GACGAGU (DNA:RNA)
RNA: B1 RNA with C25G, U26A, A30G, C31U
DNA 1: CAATCTGAATTCCGGTCTCCC
DNA 2: TGGTGGCTACGACGGGATT
B8: ACCGCUG (DNA:RNA)
RNA: B1 RNA with C25A, U26C, A29C, A30U, C31G
DNA 1: CAATCTGAATTCCGGTCTCCC
DNA 2: TGGTGGCTACGACGGGATT
B9: AGUUCCA (DNA:RNA)
RNA: B2 RNA with G25A, A26G, U29C, G30C, G31A
DNA 1: CAATCTGAATTCCGGTCTCCC
DNA 2: TGGTGGCTACGACGGGATT
B10: AGUCCGC (DNA:RNA)
RNA: B2 RNA with G25A, A26G, U28C, U29C, G31C
DNA 1: CAATCTGAATTCCGGTCTCCC
DNA 2: TGGTGGCTACGACGGGATT
B11: GACCUGC (DNA:RNA)
RNA: B2 RNA with U27C, U28C, G31C
DNA 1: CAATCTGAATTCCGGTCTCCC
DNA 2: TGGTGGCTACGACGGGATT
B12: AUACGUU (DNA:RNA)
RNA: B1 RNA with C25A, C27A, G28C, A29G, A30U, C31U
DNA 1: CAATCTGAATTCCGGTCTCCC
DNA 2: TGGTGGCTACGACGGGATT
B13: UUCACUU (DNA:RNA)
RNA: B1 RNA with C25U, G28A, A29C, A30U, C31U
DNA 1: CAATCTGAATTCCGGTCTCCC
DNA 2: TGGTGGCTACGACGGGATT
B14: AGAUCUA (DNA:RNA)
RNA: B2 RNA with G25A, A26G, U27A, U29C, G30U, G31A
DNA 1: CAATCTGAATTCCGGTCTCCC
DNA 2: TGGTGGCTACGACGGGATT
B15: AGCGGAU (DNA:RNA)
RNA: B1 RNA with C25A, U26G, A29G, C31U
DNA 1: CAATCTGAATTCCGGTCTCCC
DNA 2: TGGTGGCTACGACGGGATT
B16: UCUCAAC (DNA:RNA)
RNA: B1 RNA with C25U, U26C, C27U, G28C
DNA 1: CAATCTGAATTCCGGTCTCCC
DNA 2: TGGTGGCTACGACGGGATT
B17: CAACGAC (DNA:RNA)
RNA: B1 RNA with U26A, C27A, G28C, A29G
DNA 1: CAATCTGAATTCCGGTCTCCC
DNA 2: TGGTGGCTACGACGGGATT
B18: CUACACC (DNA:RNA)
RNA: B1 RNA with C27A, G28C, A30C
DNA 1: CAATCTGAATTCCGGTCTCCC
DNA 2: TGGTGGCTACGACGGGATT
B19: CGUUUUG (DNA:RNA)
RNA: B2 RNA with G25C, A26G, G30U
DNA 1: CAATCTGAATTCCGGTCTCCC
DNA 2: TGGTGGCTACGACGGGATT
B20: CGGCCAG (DNA:RNA)
RNA: B1 RNA with U26G, C27G, G28C, A29C, C31G
DNA 1: CAATCTGAATTCCGGTCTCCC
DNA 2: TGGTGGCTACGACGGGATT
B21: AAUGGUA (DNA:RNA)
RNA: B2 RNA with G25A, U28G, U29G, G30U, G31A
DNA 1: CAATCTGAATTCCGGTCTCCC
DNA 2: TGGTGGCTACGACGGGATT
B22: CUACUAG (DNA:RNA)
RNA: B1 RNA with C27A, G28C, A29U, C31G
DNA 1: CAATCTGAATTCCGGTCTCCC
DNA 2: TGGTGGCTACGACGGGATT
B23: UAUGCUC (DNA:RNA)
RNA: B1 RNA with C25U, U26A, C27U, A29C, A30U
DNA 1: CAATCTGAATTCCGGTCTCCC
DNA 2: TGGTGGCTACGACGGGATT
B24: AAUUUUC (DNA:RNA)
RNA: B2 RNA with G25A, G30U, G31C
DNA 1: CAATCTGAATTCCGGTCTCCC
DNA 2: TGGTGGCTACGACGGGATT
B25: GUAAUAA (DNA:RNA)
RNA: B1 RNA with C25G, C27A, G28A, A29U, C31A
DNA 1: CAATCTGAATTCCGGTCTCCC
DNA 2: TGGTGGCTACGACGGGATT
B26: GCGGUAG (DNA:RNA)
RNA: B2 RNA with A26C, U27G, U28G, G30A
DNA 1: CAATCTGAATTCCGGTCTCCC
DNA 2: TGGTGGCTACGACGGGATT
B27: AUCAGAG (DNA:RNA)
RNA: B1 RNA with C25A, G28A, A29G, C31G
DNA 1: CAATCTGAATTCCGGTCTCCC
DNA 2: TGGTGGCTACGACGGGATT
B28: GGACAAG (DNA:RNA)
RNA: B1 RNA with C25G, U26G, C27A, G28C, C31G
DNA 1: CAATCTGAATTCCGGTCTCCC
DNA 2: TGGTGGCTACGACGGGATT
B29: ACUUAUA (DNA:RNA)
RNA: B2 RNA with G25A, A26C, U29A, G30U, G31A
DNA 1: CAATCTGAATTCCGGTCTCCC
DNA 2: TGGTGGCTACGACGGGATT
B30: UAGGAUU (DNA:RNA)
RNA: B1 RNA with C25U, U26A, C27G, A30U, C31U
DNA 1: CAATCTGAATTCCGGTCTCCC
DNA 2: TGGTGGCTACGACGGGATT
B31: UCGCUUA (DNA:RNA)
RNA: B2 RNA with G25U, A26C, U27G, U28C, G30U, G31A
DNA 1: CAATCTGAATTCCGGTCTCCC
DNA 2: TGGTGGCTACGACGGGATT

molecular target: T1, RBFOX1 RRM RbFoxmut (Fox-RRM*); test: EMSA; HiTS-Eq, 1 nM pool, 10 min; buffer printed only for the single-RNA assays: 10 mM Tris pH 7.5, 150 mM NaCl, 3.4 mM EDTA, 0.001% NP-40, 30 C; conditions: tags: His6 N-terminal (pET28a); label: 5' 32P
Method in brief: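 Purified RbFox RRM (wild type or mutant) was equilibrated for 10 min in 50 µL with 1 nM of a 5′-radiolabelled pool of RNA with 7 randomized nucleotides, its flanks annealed to DNA oligonucleotides, across increasing protein concentrations. Free RNA was separated by 8% native PAGE, excised, reverse-transcribed, PCR-barcoded and sequenced on an Illumina HiSeq 2500. Relative association constants came from read-count changes of each variant against the control reaction, normalised to the cognate motif.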

| Binder | binding signal |
| --- | --- |
| B1 | 0.0743 KA relative to UGCAUGU |
| B2 | 0.0887 KA relative to UGCAUGU |
| B3 | 0.0983 KA relative to UGCAUGU |
| B4 | 0.123 KA relative to UGCAUGU |
| B5 | 0.102 KA relative to UGCAUGU |
| B6 | 0.0986 KA relative to UGCAUGU |
| B7 | 0.102 KA relative to UGCAUGU |
| B8 | 0.081 KA relative to UGCAUGU |
| B9 | 0.0726 KA relative to UGCAUGU |
| B10 | 0.092 KA relative to UGCAUGU |
| B11 | 0.0774 KA relative to UGCAUGU |
| B12 | 0.114 KA relative to UGCAUGU |
| B13 | 0.0764 KA relative to UGCAUGU |
| B14 | 0.0823 KA relative to UGCAUGU |
| B15 | 0.117 KA relative to UGCAUGU |
| B16 | 0.0553 KA relative to UGCAUGU |

| Binder | binding signal |
| --- | --- |
| B17 | 0.0723 KA relative to UGCAUGU |
| B18 | 0.0601 KA relative to UGCAUGU |
| B19 | 0.133 KA relative to UGCAUGU |
| B20 | 0.0695 KA relative to UGCAUGU |
| B21 | 0.148 KA relative to UGCAUGU |
| B22 | 0.094 KA relative to UGCAUGU |
| B23 | 0.0683 KA relative to UGCAUGU |
| B24 | 0.0604 KA relative to UGCAUGU |
| B25 | 0.13 KA relative to UGCAUGU |
| B26 | 0.127 KA relative to UGCAUGU |
| B27 | 0.127 KA relative to UGCAUGU |
| B28 | 0.0687 KA relative to UGCAUGU |
| B29 | 0.147 KA relative to UGCAUGU |
| B30 | 0.0707 KA relative to UGCAUGU |
| B31 | 0.154 KA relative to UGCAUGU |
